# Laboratory results taken from the supplement of paper PMC8728848.
# The other results are listed elsewhere or left out.
# B1: Gal 3 (Homo sapiens), P17931 (protein)
# chain: MADNFSLHDALSGSGNPNPQGWPGAWGNQPAGAGGYPGASYPGAYPGQAPPGAYPGQAPPGAYHGAPGAYPGAPAPGVYPGPPSGPGAYPSSGQPSAPGAYPATGPYGAPAGPLIVPYNLPLPGGVVPRMLITILGTVKPNANILDFQRGNDVAFHFNPRFNENNRRVIVCNTLLDNNWGREERQSVFPFESGKPFKIQVLVEPDHFKVAVNDAHLLQYNHRVKKLNEISKLGISGDIDLTSASYTMI
# Columns and labels:
# Assay in all cases: glycan array binding signal (z-score within array); higher = stronger binding
# Details in all cases: glycan notation: IUPAC condensed, linker removed; mutation: K176L
# [1] = molecular target: GlcNAc6S(b1-3)Gal(b1-4)GlcNAc
# Summary of the method: (§1)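 The binding signal is a Z-score computed within each array and averaged over linkers. Arrays of the same protein sequence at different concentrations or buffers were also averaged together. Data originate from 3228 arrays in the Consortium for Functional Glycomics database, kept only where the protein sequence was available.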
# [2] = molecular target: Kdn(a2-3)Gal(b1-3)GalNAc
# Summary of the method: as §1
# [3] = molecular target: Kdn(a2-3)Gal(b1-3)GlcNAc
# Summary of the method: as §1
# [4] = molecular target: Kdn(a2-3)Gal(b1-4)Glc
# Summary of the method: as §1
# [5] = molecular target: Kdn(a2-3)Gal(b1-4)GlcNAc
# Summary of the method: as §1
# [6] = molecular target: Kdn(a2-3)Gal(b1-4)[Fuc(a1-3)]GlcNAc
# Summary of the method: as §1
# [7] = molecular target: Kdn(a2-6)Gal(b1-4)GlcNAc
# Summary of the method: as §1
# [8] = molecular target: Man(a1-2)Man(a1-2)Man(a1-3)Man
# Summary of the method: as §1
# [9] = molecular target: Man(a1-2)Man(a1-2)Man(a1-6)[Man(a1-3)]Man
# Summary of the method: as §1
# [10] = molecular target: Man(a1-2)Man(a1-3)Man
# Summary of the method: as §1
# [11] = molecular target: Man(a1-2)Man(a1-3)[Man(a1-2)Man(a1-6)]Man
# Summary of the method: as §1
# [12] = molecular target: Man(a1-2)Man(a1-3)[Man(a1-2)Man(a1-6)]Man(a1-6)[Man(a1-2)Man(a1-2)Man(a1-3)]Man
# Summary of the method: as §1
# [13] = molecular target: Man(a1-2)Man(a1-3)[Man(a1-2)Man(a1-6)]Man(a1-6)[Man(a1-2)Man(a1-2)Man(a1-3)]Man(b1-4)GlcNAc(b1-4)GlcNAc
# Summary of the method: as §1
# [14] = molecular target: Man(a1-2)Man(a1-3)[Man(a1-6)]Man(a1-6)[Man(a1-2)Man(a1-3)]Man(b1-4)GlcNAc(b1-4)GlcNAc
# Summary of the method: as §1
# [15] = molecular target: Man(a1-2)Man(a1-6)[Man(a1-3)]Man(a1-6)[Man(a1-2)Man(a1-2)Man(a1-3)]Man
# Summary of the method: as §1
# [16] = molecular target: Man(a1-2)Man(a1-6)[Man(a1-3)]Man(a1-6)[Man(a1-2)Man(a1-2)Man(a1-3)]Man(b1-4)GlcNAc(b1-4)GlcNAc
# Summary of the method: as §1
# [17] = molecular target: Man(a1-3)[Man(a1-6)]Man
# Summary of the method: as §1
# [18] = molecular target: Man(a1-3)[Man(a1-6)]Man(a1-6)[Man(a1-2)Man(a1-3)]Man(b1-4)GlcNAc(b1-4)GlcNAc
# Summary of the method: as §1
# [19] = molecular target: Man(a1-3)[Man(a1-6)]Man(a1-6)[Man(a1-3)]Man
# Summary of the method: as §1
# [20] = molecular target: Man(a1-3)[Man(a1-6)]Man(a1-6)[Man(a1-3)]Man(b1-4)GlcNAc(b1-4)GlcNAc
# Summary of the method: as §1
# [21] = molecular target: Man(a1-3)[Man(a1-6)]Man(b1-4)GlcNAc(b1-4)GlcNAc
# Summary of the method: as §1
# [22] = molecular target: Man(a1-6)Man
# Summary of the method: as §1
# [23] = molecular target: Man(b1-4)GlcNAc
# Summary of the method: as §1
# [24] = molecular target: Neu5Ac(a2-3)Gal
# Summary of the method: as §1
# [25] = molecular target: Neu5Ac(a2-3)Gal(b1-3)GalNAc
# Summary of the method: as §1
# [26] = molecular target: Neu5Ac(a2-3)Gal(b1-3)GalNAc(b1-3)Gal(a1-4)Gal(b1-4)Glc
# Summary of the method: as §1
# [27] = molecular target: Neu5Ac(a2-3)Gal(b1-3)GalNAc(b1-4)[Neu5Ac(a2-3)]Gal(b1-4)Glc
# Summary of the method: as §1
# [28] = molecular target: Neu5Ac(a2-3)Gal(b1-3)GalNAc6S
# Summary of the method: as §1
# [29] = molecular target: Neu5Ac(a2-3)Gal(b1-3)GlcNAc
# Summary of the method: as §1
# [30] = molecular target: Neu5Ac(a2-3)Gal(b1-3)GlcNAc(b1-2)Man(a1-3)[Neu5Ac(a2-3)Gal(b1-3)GlcNAc(b1-2)Man(a1-6)]Man(b1-4)GlcNAc(b1-4)GlcNAc
# Summary of the method: as §1
# [31] = molecular target: Neu5Ac(a2-3)Gal(b1-3)GlcNAc(b1-3)Gal(b1-3)GlcNAc
# Summary of the method: as §1
# [32] = molecular target: Neu5Ac(a2-3)Gal(b1-3)GlcNAc(b1-3)Gal(b1-4)GlcNAc
# Summary of the method: as §1
# [33] = molecular target: Neu5Ac(a2-3)Gal(b1-3)GlcNAc(b1-3)GalNAc
# Summary of the method: as §1
# [34] = molecular target: Neu5Ac(a2-3)Gal(b1-3)GlcNAc6S
# Summary of the method: as §1
# [35] = molecular target: Neu5Ac(a2-3)Gal(b1-3)[Fuc(a1-4)]GlcNAc
# Summary of the method: as §1
# [36] = molecular target: Neu5Ac(a2-3)Gal(b1-3)[Fuc(a1-4)]GlcNAc(b1-3)Gal(b1-3)[Fuc(a1-4)]GlcNAc
# Summary of the method: as §1
# [37] = molecular target: Neu5Ac(a2-3)Gal(b1-3)[Fuc(a1-4)]GlcNAc(b1-3)Gal(b1-4)[Fuc(a1-3)]GlcNAc
# Summary of the method: as §1
# [38] = molecular target: Neu5Ac(a2-3)Gal(b1-3)[Neu5Ac(a2-3)Gal(b1-4)]GlcNAc
# Summary of the method: as §1
# [39] = molecular target: Neu5Ac(a2-3)Gal(b1-3)[Neu5Ac(a2-6)]GalNAc
# Summary of the method: as §1
# [40] = molecular target: Neu5Ac(a2-3)Gal(b1-4)Glc
# Summary of the method: as §1
# [41] = molecular target: Neu5Ac(a2-3)Gal(b1-4)GlcNAc
# Summary of the method: as §1
# [42] = molecular target: Neu5Ac(a2-3)Gal(b1-4)GlcNAc(b1-2)Man(a1-3)[GlcNAc(b1-2)Man(b1-4)GlcNAc(b1-2)Man(a1-6)]Man(b1-4)GlcNAc(b1-4)GlcNAc
# Summary of the method: as §1
# [43] = molecular target: Neu5Ac(a2-3)Gal(b1-4)GlcNAc(b1-2)Man(a1-3)[Neu5Ac(a2-6)Gal(b1-4)GlcNAc(b1-2)Man(a1-6)]Man(b1-4)GlcNAc(b1-4)GlcNAc
# Summary of the method: as §1
# [44] = molecular target: Neu5Ac(a2-3)Gal(b1-4)GlcNAc(b1-3)Gal(b1-3)GlcNAc
# Summary of the method: as §1
# [45] = molecular target: Neu5Ac(a2-3)Gal(b1-4)GlcNAc(b1-3)Gal(b1-4)GlcNAc
# Summary of the method: as §1
# [46] = molecular target: Neu5Ac(a2-3)Gal(b1-4)GlcNAc(b1-3)Gal(b1-4)GlcNAc(b1-3)Gal(b1-4)GlcNAc
# Summary of the method: as §1
# [47] = molecular target: Neu5Ac(a2-3)Gal(b1-4)GlcNAc(b1-3)Gal(b1-4)[Fuc(a1-3)]GlcNAc
# Summary of the method: as §1
# [48] = molecular target: Neu5Ac(a2-3)Gal(b1-4)GlcNAc(b1-3)GalNAc
# Summary of the method: as §1
# [49] = molecular target: Neu5Ac(a2-3)Gal(b1-4)GlcNAc(b1-6)[Gal(b1-3)]GalNAc
# Summary of the method: as §1
# [50] = molecular target: Neu5Ac(a2-3)Gal(b1-4)GlcNAc(b1-6)[Neu5Ac(a2-3)Gal(b1-3)]GalNAc
# Summary of the method: as §1
# [51] = molecular target: Neu5Ac(a2-3)Gal(b1-4)GlcNAc6S
# Summary of the method: as §1
# [52] = molecular target: Neu5Ac(a2-3)Gal(b1-4)[Fuc(a1-3)]GlcNAc
# Summary of the method: as §1
# [53] = molecular target: Neu5Ac(a2-3)Gal(b1-4)[Fuc(a1-3)]GlcNAc(b1-3)Gal
# Summary of the method: as §1
# [54] = molecular target: Neu5Ac(a2-3)Gal(b1-4)[Fuc(a1-3)]GlcNAc(b1-3)Gal(b1-4)GlcNAc
# Summary of the method: as §1
# [55] = molecular target: Neu5Ac(a2-3)Gal(b1-4)[Fuc(a1-3)]GlcNAc(b1-3)Gal(b1-4)[Fuc(a1-3)]GlcNAc(b1-3)Gal(b1-4)[Fuc(a1-3)]GlcNAc
# Summary of the method: as §1
binder,measurement,setting,value
B1,glycan array binding signal (z-score),[1],-0.267
same,glycan array binding signal (z-score),[2],-0.264
same,glycan array binding signal (z-score),[3],-0.255
same,glycan array binding signal (z-score),[4],-0.262
same,glycan array binding signal (z-score),[5],-0.268
same,glycan array binding signal (z-score),[6],-0.27
same,glycan array binding signal (z-score),[7],-0.266
same,glycan array binding signal (z-score),[8],-0.26
same,glycan array binding signal (z-score),[9],-0.268
same,glycan array binding signal (z-score),[10],-0.268
same,glycan array binding signal (z-score),[11],-0.27
same,glycan array binding signal (z-score),[12],-0.269
same,glycan array binding signal (z-score),[13],-0.263
same,glycan array binding signal (z-score),[14],-0.27
same,glycan array binding signal (z-score),[15],-0.269
same,glycan array binding signal (z-score),[16],-0.263
same,glycan array binding signal (z-score),[17],-0.265
same,glycan array binding signal (z-score),[18],-0.267
same,glycan array binding signal (z-score),[19],-0.269
same,glycan array binding signal (z-score),[20],-0.266
same,glycan array binding signal (z-score),[21],-0.271
same,glycan array binding signal (z-score),[22],-0.264
same,glycan array binding signal (z-score),[23],-0.254
same,glycan array binding signal (z-score),[24],-0.267
same,glycan array binding signal (z-score),[25],-0.269
same,glycan array binding signal (z-score),[26],-0.269
same,glycan array binding signal (z-score),[27],-0.269
same,glycan array binding signal (z-score),[28],-0.271
same,glycan array binding signal (z-score),[29],-0.266
same,glycan array binding signal (z-score),[30],-0.272
same,glycan array binding signal (z-score),[31],1.24
same,glycan array binding signal (z-score),[32],0.372
same,glycan array binding signal (z-score),[33],-0.268
same,glycan array binding signal (z-score),[34],-0.268
same,glycan array binding signal (z-score),[35],-0.27
same,glycan array binding signal (z-score),[36],-0.267
same,glycan array binding signal (z-score),[37],-0.269
same,glycan array binding signal (z-score),[38],-0.269
same,glycan array binding signal (z-score),[39],-0.267
same,glycan array binding signal (z-score),[40],-0.265
same,glycan array binding signal (z-score),[41],-0.267
same,glycan array binding signal (z-score),[42],-0.266
same,glycan array binding signal (z-score),[43],-0.266
same,glycan array binding signal (z-score),[44],-0.27
same,glycan array binding signal (z-score),[45],-0.267
same,glycan array binding signal (z-score),[46],2.86
same,glycan array binding signal (z-score),[47],-0.274
same,glycan array binding signal (z-score),[48],-0.265
same,glycan array binding signal (z-score),[49],-0.272
same,glycan array binding signal (z-score),[50],-0.268
same,glycan array binding signal (z-score),[51],-0.266
same,glycan array binding signal (z-score),[52],-0.266
same,glycan array binding signal (z-score),[53],-0.274
same,glycan array binding signal (z-score),[54],-0.26
same,glycan array binding signal (z-score),[55],-0.272
